Data taken from PubChem BioAssay AID662 (National Center for Advancing Translational Sciences (NCATS), 2007).
The whole screen tested about 71,000 compounds, of which about 1,800 (2.5%) were called active. The shares of active, inactive and inconclusive entries below differ from those in the screen. The call rests on the fitted dose curve; in most records, active means well fitted activation curve with a large enough effect in the signal ratio, with a control signal flat (not every such curve was filed as active); inconclusive means small, poorly fitted or top-dose-only effect, or effect the other way, or a change in a side signal; inactive means flat fitted curve, though single readings scatter; the % refers to the signal ratio. Potencies of inconclusive entries are doubtful fits and often do not repeat.
Potency means the concentration at half of the fitted maximal effect; tags describe the fitted curve by direction and shape.

Assay: Cell signaling CRE-BLA (Fsk stim); on activity change, negative = inhibition: % of control where 0% means no effect
Conditions: CHO CRE-bla reporter (cAMP response element driving beta-lactamase), forskolin EC10, beta-lactamase ratio; activity change, negative = inhibition: at 38.2 µM (top of the series) unless noted
Outline: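 CRE-bla CHO cells stimulated with EC10 NKH 477 (water-soluble forskolin) and compound titrations, 3 h at 37C; beta-lactamase read with CCF4 after 2 h at room temperature. Activity from 460/530 nm emission ratio, AC50 values for positive or negative modulation.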
For O=C(CN(c1ccccc1F)S(=O)(=O)c1ccccc1)N1CCCCCC1, the activity change, negative = inhibition was inconclusive: -8.52% [at 7.6 µM]. With N#Cc1nc(COc2ccccc2)oc1N1CCN(Cc2ccccc2)CC1 the Potency was inconclusive: 7.94 µM [rising, partial curve]. For CCn1c(SCC(=O)C(C)(C)C)nnc1-c1cnccn1, the activity change, negative = inhibition was inconclusive: -7.25%. In the case of COc1ccc(Nc2nc3c(c(=O)n(C)c(=O)n3C)n2CCO)cc1, the activity change, negative = inhibition is reported as inconclusive: 12.1%. In the case of Cc1nn2c(-c3ccco3)nnc2c2ccccc12, the Potency is reported as inconclusive: 12.6 µM [rising, partial curve]. For Cc1onc(-c2c(F)cccc2Cl)c1C(=O)NCC1COc2ccccc2O1 (configuration not stated), the activity change, negative = inhibition was “inactive”. For CC(=O)Nc1nc2c(c3c1c(=O)oc1ccccc13)CC(C)CC2 (configuration not stated), the activity change, negative = inhibition was inconclusive: 12.6%. In the case of COc1cc2c(cc1OC)-c1cc(N3CCCCCC3)nc(=O)n1CC2, the Potency is reported as active: 0.631 µM. For Cn1c(=O)[nH]c(=O)c2c1nc(SCCN1CCOCC1)n2Cc1ccccc1, the activity change, negative = inhibition was inconclusive: 29%. In the case of O=C(Nc1ccc(F)cc1)c1cc(S(=O)(=O)N2CCCCC2)cs1, the activity change, negative = inhibition is reported as “inactive”. In the case of NC(N)=NC(N)=Nc1ccccc1 (tested in a mixture with another compound), the activity change, negative = inhibition is reported as inactive: -6.49% [at 7.6 µM]. With COC(=O)c1cn(C)c2ccc(S(=O)(=O)N3CCCC3)cc2c1=O the Potency was inconclusive: 10 µM [rising, partial curve]. For CCCc1cc(=O)oc2cc3oc(C)c(C)c3cc12, the Potency was inconclusive: 12.6 µM [rising, partial curve]. In the case of CCOc1ccc2nc(NCCNC(=O)Nc3cccc(C)c3)c(C#N)cc2c1, the Potency is reported as inconclusive: 10 µM [rising, partial curve]. For COC(=O)c1nn(-c2ccc(-c3ccccc3)cc2)cc1O, the activity change, negative = inhibition was “inactive”. For C=CCOC(=O)c1[nH]c2c(c1C)C(=O)CC(c1ccco1)C2 (configuration not stated), the Potency was active: 0.501 µM. In the case of C/C(=N\S(=O)(=O)c1ccc(C)cc1)N1CCN(S(=O)(=O)c2ccccc2)C1, the activity change, negative = inhibition is reported as inconclusive: -17.9%. In the case of COc1ccc(C(=O)N2CCC(n3c(C)nc4cc(F)ccc43)CC2)cc1OC, the Potency is reported as inconclusive: 10 µM [rising, single point]. For c1ccc(Cn2nnnc2CN2CCN(c3ncccn3)CC2)cc1, the activity change, negative = inhibition was “inactive”. With CC1CCN(C(=O)CSc2nnc(-c3cc4ccccc4cc3O)n2Cc2ccco2)CC1 the activity change, negative = inhibition was “inactive”. With Cc1csc(SCC(=O)Nc2cccc3nsnc23)n1 the Potency was inconclusive: 10 µM [falling, partial curve]. For CCOc1ccc(C2C(C#N)=C(N)SC(N)=C2C#N)c(OCC)c1, the Potency was inconclusive: 10 µM [rising, partial curve]. For COc1ccc(S(=O)(=O)N(C)CC(=O)Nc2ccccc2OC)cc1C, the activity change, negative = inhibition was “inactive”. With CCOc1ccc(OCC)c(NC(=O)CN2CCN(c3cc(C)ccc3C)CC2)c1 the activity change, negative = inhibition was inconclusive: 3.82%. In the case of Cc1nn(C(C)(C)C)c(OC(=O)c2ccc3c(c2)OCO3)c1S(=O)(=O)c1ccccc1, the activity change, negative = inhibition is reported as “inactive”. For CCOC(=O)c1cc(C#N)c(NCc2ccccc2)nc1C, the Potency was inconclusive: 3.16 µM [rising, partial curve]. With CCCC/C=C/C(NC(=O)C(C)(C)C)c1ccccc1 (configuration not stated) the activity change, negative = inhibition was inconclusive: 3.28%. In the case of COc1cc(/C=C/C(=O)CC(=O)/C=C/c2ccc(O)c(OC)c2)ccc1O, the activity change, negative = inhibition is reported as inconclusive: -5.41% [fluorescent]. For Cc1cccc(CNc2cc(-c3cccc(C#N)c3)ncn2)c1, the activity change, negative = inhibition was inconclusive: 26.8%. For COc1cc(C(=O)Nc2cc(-c3nc4cc(C)ccc4o3)ccc2C)cc(OC)c1OC, the activity change, negative = inhibition was “inactive”. With Cn1c(=O)c2[nH]c(CCCCC(=O)O)nc2n(C)c1=O the activity change, negative = inhibition was inactive: 10.1% [at 7.6 µM]. For CCCCS(=O)(=O)NC1=NCN(CC)CN1, the activity change, negative = inhibition was inconclusive: -30.1%. With CCOc1cc2[nH]c(=O)n(CCCCC(=O)NC3CCCCC3)c(=O)c2cc1OCC the activity change, negative = inhibition was “inactive”. In the case of COc1cc2c(cc1OC)CN(C(=O)CSc1nc(N)c(C#N)cc1C#N)CC2, the Potency is reported as inconclusive: 12.6 µM [rising, partial curve]. With CC(C#N)Sc1nc2ccccc2c(=O)n1-c1ccccc1 (configuration not stated) the Potency was inconclusive: 10 µM [rising, partial curve]. In the case of CCCCCCN(CCCCCC)C(=O)Cc1c(-c2ccc(Cl)cc2)[nH]c2ccc(Cl)cc12, the activity change, negative = inhibition is reported as “inactive”. With COc1ccc(CNc2ccnc(-c3cccc(NS(C)(=O)=O)c3)n2)c(OC)c1 the Potency was inconclusive: 10 µM [rising, partial curve]. In the case of CC1=C(C(=O)OCC2CCCO2)C(c2ccc(C)o2)C2=C(CC(c3ccc(F)cc3)CC2=O)N1 (configuration not stated), the activity change, negative = inhibition is reported as “inactive”. In the case of CC1CCN(S(=O)(=O)c2cc(Cl)ccc2Br)CC1, the activity change, negative = inhibition is reported as inconclusive: -17.1%. With CN(Cc1ccccc1)C(=O)c1cc(-c2ccc(Br)cc2)on1 the activity change, negative = inhibition was inconclusive: 16.8%. In the case of O=C(c1cc(C(F)(F)F)cc(C(F)(F)F)c1)N1CCC[C@@]2(CCN(c3ccncc3)C2)C1, the activity change, negative = inhibition is reported as “inactive”. In the case of CCCCNc1nc(C)nc2c1nc(-c1ccccc1)n2CCN1CCCC1, the activity change, negative = inhibition is reported as “inactive”. For COc1cccc(Nc2ncc3nc(-c4ccc(Cl)cc4)c(=O)n(CCC#N)c3n2)c1, the activity change, negative = inhibition was inconclusive: -10.6% [fluorescent]. In the case of CCOC(=O)CNc1nnc(SCC(=O)OCC)[nH]c1=O, the activity change, negative = inhibition is reported as inconclusive: -20.7%. With O=C1c2ccccc2C(=O)N1c1n[nH]c(CCc2ccccc2)n1 the activity change, negative = inhibition was “inactive”. In the case of O=C(O)c1ccc(CO)o1, the activity change, negative = inhibition is reported as “inactive”. For COc1ccc(S(=O)(=O)N2CCCN(Cc3cccc(F)c3)CC2)cc1, the activity change, negative = inhibition was inconclusive: 23.8%. In the case of Cc1cc(NC(=O)CNC(=O)C2CCCCC2)no1, the activity change, negative = inhibition is reported as inconclusive: -15% [at 7.6 µM]. With O=C(NC1=NCCS1)Nc1ccccc1 the activity change, negative = inhibition was “inactive”. In the case of COc1cc(SC)ccc1C(=O)NCCCOC(C)C, the activity change, negative = inhibition is reported as inconclusive: 1.39%. With Cc1ccc(S(=O)(=O)NC(CC(=O)NC2CCCC2)c2ccco2)cc1 (configuration not stated) the activity change, negative = inhibition was “inactive”. For CCOC(=O)CN1C(=O)C(C)(C)Oc2ccc(C(=O)NC(C)(C)CC)cc21, the activity change, negative = inhibition was inconclusive: 2.05%. In the case of COC(=O)c1cc(=O)n(C2CC2)c(=NC2CC2)s1, the Potency is reported as inconclusive: 3.16 µM [rising, full curve, poor fit]. With COc1cccc(-n2cc3c(c2-c2ccccc2)c(=O)n(C)c(=O)n3C)c1 the activity change, negative = inhibition was inconclusive: 23.3%. For COc1nc(-c2ccccc2)ccc1-c1noc(-c2cccs2)n1, the activity change, negative = inhibition was “inactive”. With CCOC(=O)C1=C(C)NC(C)=C(C(=O)OCC)C1c1cc2ccc(C)cc2[nH]c1=O the activity change, negative = inhibition was inconclusive: 12%. In the case of Cc1ccc(-n2ncc3c(=O)n(CC(=O)NCc4ccco4)cnc32)cc1, the activity change, negative = inhibition is reported as “inactive”. For N#Cc1nc(Cc2ccccc2)oc1NCc1ccccc1Cl, the Potency was inconclusive: 7.94 µM [rising, partial curve]. In the case of COc1ccc(CNc2ncncc2-c2ccccc2C(F)(F)F)c(OC)c1, the activity change, negative = inhibition is reported as “inactive”. For COc1cccc(Cn2c(=O)c(CCc3ccccc3)nc3cnc(N4CCN(C)CC4)nc32)c1, the Potency was inconclusive: 12.6 µM [rising, partial curve]. For N#Cc1cccc(-c2ccc3ncnc(NCCN4CCOCC4)c3c2)c1, the Potency was inconclusive: 12.6 µM [rising, partial curve]. In the case of Cn1cc(-c2nc3cncnc3n(Cc3ccc(F)cc3)c2=O)c2ccccc21, the Potency is reported as inconclusive: 15.8 µM [falling, single point]. For Cn1c(=O)[nH]c(=O)c2c1nc(N1CCCCC1)n2CCCSc1nc2ccccc2s1, the Potency was active: 2.51 µM. For Cn1ccnc1C(=O)c1cc(=O)c2ccccc2o1, the activity change, negative = inhibition was inconclusive: -7.39%. With O=C(Cn1cnc2c(nnn2Cc2ccc(Cl)cc2)c1=O)NC1CCCC1 the Potency was inconclusive: 5.01 µM [rising, single point]. With CCCC(C)C(=O)Nc1cccc(NC(C)=O)c1 (configuration not stated) the activity change, negative = inhibition was inconclusive: -5.08% [at 7.6 µM]. For N#Cc1ccccc1Cn1c(=O)n(-c2ccc(CC(=O)NCc3ccco3)cc2)c(=O)c2sccc21, the Potency was inconclusive: 25.1 µM [rising, single point]. For COC(=O)c1ccccc1NC(=O)c1cnc2sccn2c1=O, the activity change, negative = inhibition was “inactive”. For CC(C)C[C@@H](CC(=O)N[C@@H](CCCN)CC(=O)N[C@@H]1CCCC[C@H]1C(=O)N[C@H](CC(=O)N[C@@H](CCC(=O)O)CC(=O)O)Cc1ccccc1)NC(=O)[C@@H]1CCCC[C@H]1N, the activity change, negative = inhibition was inconclusive: -22.1%. For COC(=O)c1ccccc1CCC(C)=O, the activity change, negative = inhibition was inconclusive: 6.19%. With Cc1ncoc1C(=O)Nc1ccccc1C(N)=O the Potency was inconclusive: 25.1 µM [rising, single point]. For O=C(CSc1nnc(-c2cc3ccccc3cc2O)n1Cc1ccco1)c1ccc(F)cc1, the activity change, negative = inhibition was inconclusive: -11.6%. For Cc1ccc2[nH]c(=O)c(CN(CCO)C(=O)NCc3ccccc3)cc2c1, the activity change, negative = inhibition was “inactive”. In the case of CCOC(=O)c1nnn(-c2nonc2N)c1CN1CCc2ccccc2C1, the activity change, negative = inhibition is reported as “inactive”. In the case of Cc1nnc(NC(=O)Cc2ccc(OCc3c(C)noc3C)cc2)s1, the activity change, negative = inhibition is reported as inconclusive: -1.86%. In the case of CCN(CC)c1ccc2cc(NC(=O)CCC(=O)O)c(=O)oc2c1, the Potency is reported as inconclusive: 2 µM [falling, partial curve]. With CN1C(=O)c2ccc(C(=O)NCc3ccccc3)cc2C1=O the activity change, negative = inhibition was inconclusive: 12.3%. In the case of CC1CCCN(C(=O)C2c3ccccc3C(=O)N3CCc4ccccc4C23)C1 (configuration not stated), the activity change, negative = inhibition is reported as inconclusive: 18.1%. In the case of CCCc1cc(=O)n2[nH]cnc2n1, the activity change, negative = inhibition is reported as inconclusive: 2.58%. With Cc1ccc(-c2cc(C(F)(F)F)n3ncc(C(=O)N4CCN(C)CC4)c3n2)cc1 the activity change, negative = inhibition was inconclusive: 11.4% [at 7.6 µM]. In the case of CS(=O)(=O)N(Cc1ccco1)CC(O)Cn1c2ccccc2c2ccccc21 (configuration not stated), the activity change, negative = inhibition is reported as inconclusive: -25%. For CCC1(C)Cc2ccccc2-c2nc3n(c(=O)c21)CC(C(=O)O)S3 (configuration not stated), the activity change, negative = inhibition was “inactive”.
